Each structure is given as a SMILES string. “And” between values parts separate entries of the source, which are not always exact repeats. Identical values can stand only once. Screen size: about 48,000 compounds; about 1,200 (2.5%) were called active. Another 2% or so got no clear call; they are omitted.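 The calls were made as follows: active = activation of at least 60% and not above a set upper limit (about 1 call in 100 departs from these limits); inconclusive = activation of 40% to 60%, or above that upper limit; inactive = activation under 40%.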 Some of the results follow.

The target of this test is Probable G-protein coupled receptor 32 (Homo sapiens) (UniProt O75388). The test can be described thus: qHTS for Agonists of Human Resolvin D1 Receptor DRV1. Also: 0% is about no effect. The settings on record: CHO-K1 GPR32 beta-arrestin PathHunter luminescence, 90 min; at 76.9 µM; hits give high values; zero percent set by DMSO-only wells. The procedure, abridged: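 Agonism was scored by beta-Gal fragment complementation (chemiluminescent read, 1 h detection at ambient temperature) reporting beta-arrestin binding to GPR32 in engineered CHO-K1 cells. Compound treatment lasted 90 min at 37 C, normalized to a DMSO basal control.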
Chain of UniProt O75388 (O75388 whole entry, looked up, the tested form may be a part): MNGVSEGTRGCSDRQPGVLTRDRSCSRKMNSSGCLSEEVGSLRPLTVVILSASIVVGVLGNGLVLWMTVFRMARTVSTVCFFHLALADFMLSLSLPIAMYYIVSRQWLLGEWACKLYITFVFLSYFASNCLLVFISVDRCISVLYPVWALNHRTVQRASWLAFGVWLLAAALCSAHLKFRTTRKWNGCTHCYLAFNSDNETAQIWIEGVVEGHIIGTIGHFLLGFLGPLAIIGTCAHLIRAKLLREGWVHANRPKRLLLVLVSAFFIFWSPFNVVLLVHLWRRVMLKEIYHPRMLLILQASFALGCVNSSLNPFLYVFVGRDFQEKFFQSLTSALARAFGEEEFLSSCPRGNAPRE
(In general: qHTS replaces the single test concentration by a dilution series.)
For `CCOc1ccc(N(Cc2cc3cc(C)ccc3[nH]c2=O)C(=O)c2cccc(Cl)c2)cc1`, the activation is inactive: -8.79%.
In the case of `COc1ccc(S(=O)(=O)NCCc2cn3ccsc3n2)cc1OC`, the activation was inactive: -2.25%.
As to `O=C(N[C@H](CO)[C@H](O)c1ccc([N+](=O)[O-])cc1)C(Cl)Cl`, the activation is inactive: -33.7%.
Consider `CCOC(=O)C1CCN(CCC(=O)Nc2ccccc2Cl)CC1`, for which the activation is inactive: 1.55%.
With `O=C(CCS(=O)(=O)c1cc2c3c(c1)CCN3C(=O)CC2)NCc1ccc(Cl)cc1`, the activation was inactive: -10.2%.
In the case of `COc1ccc(/C=C/c2nc(C#N)c(NC3CCCCC3)o2)cc1OC`, the activation is inactive: -17.5%.
In the case of `Cc1ccc(CNC(=O)CCc2c(C)nn(-c3ccc(N4CCCC4)nn3)c2C)cc1`, the activation is inactive: -9.65%.
For `COC(=O)CSc1ccc2nnc(CCNS(=O)(=O)c3ccc(C)cc3)n2n1` the value was inactive: -9.86%.
As for `CCOC(=O)C1=C(CN2CCN(c3ccccc3F)CC2)NC(=O)NC1c1ccc(OC)cc1` (stereo unspecified), the activation was inactive: -4.67%.
Take `COc1ccccc1CNC(=O)Cn1c(-c2cccs2)cc2cc(F)ccc21`: the activation is active: 103%.
On to `CCOc1ccccc1NC(=O)Cn1nc2c3cc(F)ccc3n(Cc3cccc(C)c3)cc-2c1=O`, for which the activation was inactive: -7.1%.
As to `COc1ccc(CCNC(=O)c2cc(-c3ccc(Cl)cc3)on2)cc1OC`, the activation was inactive: 7.21%.
For `COc1cccc(NC(=O)CCc2nc(-c3cc(OC)c(OC)c(OC)c3)no2)c1` the value was inactive: 15.4%; for `COc1cc2c(C(=O)N3CCN(c4ccc(C)cc4)C(C)C3)cn(CC(C)C)c(=O)c2cc1OC` (stereo unspecified), inactive: 19.6%; for `Cc1nc2ccccn2c(=O)c1NC(=O)c1ccccc1Cl`, inactive: -12.8%.
The figure for `Cc1ccc(C)c(NC(=O)C(=O)NCCc2csc(-c3cccc(F)c3)n2)c1` is inactive: -2.03%; for `Cn1c(=O)cc(SCC(=O)Nc2cccc(C#N)c2)c2ccc(Cl)cc21` it is inactive: -1.69%; for `CCOC(=O)c1ccc(NC(=O)c2cc3c(=O)n(C)c4ccccc4c3n2C)cc1` it is inactive: -3.11%.
For `COC(=O)C1=C(C)NC(C)=C(C(=O)O[C@@H]2CCCN(Cc3ccccc3)C2)[C@@H]1c1cccc([N+](=O)[O-])c1`, the activation was inactive: -5.03%.
The figure for `COc1ccc(N2CCN(C(=O)Cc3noc4ccc(C)cc34)CC2)cc1` is inactive: -28.6%; for `Cc1ccc(CN2CCc3nc(N4CCN(C)CC4)ncc3C2)cc1` it is inactive: -32.5%; for `CCc1ccc(NC(=O)Cn2ccn(-c3cccc(Cl)c3)c(=O)c2=O)cc1` it is inactive: -4.95%.
As for `COc1ccc(C(=O)N2CCC(c3ccncc3)CC2)cc1OC`, the activation was inactive: 14%.
For the compound `CCOc1ccc(-c2ccc(NS(=O)(=O)c3cc(C)c(C)cc3C)cc2)nn1`, the activation was inactive: -12.7%.
Take `Cc1ccc2c(c1)c1c3n2CCNC3CCC1` (stereo unspecified): the activation was inactive: 4.07%.
Take `Cc1ccccc1CN1CCc2nc(Nc3ccc4c(c3)OCCO4)ncc2C1`: the activation was inactive: -4.88%.
On to `CCOc1ccc(CCNC(=O)c2ccc(CS(=O)(=O)Cc3ccccc3Cl)o2)cc1OCC`, for which the activation was inactive: -7.47%.
For the compound `CCN(C(=O)COc1cc(=O)n(C)c2ccccc12)c1cccc(C(F)(F)F)c1`, the activation is inactive: 16.1%.
With `CC(NC(=O)CCn1c(=O)c2cccn2c2ccc(F)cc21)c1ccccc1` (stereo unspecified), the activation is inactive: -17.6%.
As to `O=C(c1cc2c(=O)[nH]c3ccccc3c2s1)N1CCN(c2ccc(F)cc2)CC1`, the activation was inactive: 1.97%.
As for `CCOc1ccc(C(=O)Nc2ccc(-c3nc4cc(CC)ccc4o3)cc2)cc1`, the activation is inactive: -1.85%.
Consider `COc1ccc(NC(=O)C(=O)NCCc2csc(-c3ccc(Cl)cc3)n2)cc1`, for which the activation was inactive: 1.29%.
For the compound `COc1cccc(NC(=O)c2oc3ccccc3c2NC(=O)C23CC4CC(CC(C4)C2)C3)c1`, the activation is inactive: 1.16%.
For `COc1ccc(CN2COc3ccc4c(C)cc(=O)oc4c3C2)cc1` the value was inactive: -3.06%; for `CC(=O)N[C@@H](Cc1c[nH]c2ccccc12)C(=O)OCc1cc(C(F)(F)F)cc(C(F)(F)F)c1`, inactive: 0.29%.
`COc1cccc2c1Oc1nc(-c3ccccc3)nc(SCC(=O)N3CCCCC3)c1C2`: the activation is inactive: 8.32%.
For the compound `COc1ccccc1NC(=O)Cn1c(=O)n(Cc2ccccc2)c(=O)c2ccccc21`, the activation is inactive: -11.8%.
`COC(=O)c1ccc(NC(=O)Nc2nnc(N(C)C3CCCCC3)s2)cc1`: the activation is inactive: 7.41%.
For `CCCOc1ccc(Nc2nc(SC)ncc2C(=O)OCC)cc1` the value was inactive: -22%.
Turning to `O=C(CCn1c(=O)c2cccn2c2ccc(F)cc21)NCCc1ccccc1Cl`, the activation was inactive: -19.4%.
The figure for `Cc1coc2c(C)c3oc(=O)c(CC(=O)N4CCCCC4)c(C)c3cc12` is inactive: -5.77%; for `COc1ccc(-c2nc3nc(C)cc(Nc4ccc(C(C)=O)cc4)n3n2)cc1` it is inactive: 1.25%.
As for `Cc1cc(C)cc(-n2c(SCC(=O)Nc3nnc(C)s3)nc3c([nH]c4ccccc43)c2=O)c1`, the activation is inactive: 41.3%.
With `COC(=O)c1ccc(NC(=O)Cc2coc3cc(C)ccc23)cc1`, the activation is inactive: -9.54%.
Consider `O=C(NCCCN1CCOCC1)c1ccc2c(c1)N(Cc1ccccc1)C(=O)c1ccccc1S2`, for which the activation was inactive: -22.5%.
For `CCn1c2ccccc2c2nnc(N3CCN(c4cccc(C)c4C)CC3)nc21`, the activation is inactive: -17.9%.
For `Cc1ccc(C)c(CN2CCC(CNC(=O)Cn3ncc4c([nH]c5ccccc54)c3=O)CC2)c1` the value was inactive: 6.52%.
As to `NC/C=C/C(=O)O`, the activation is inactive: 21% and inactive: -3.98%.
In the case of `CCOc1ccc(NC(=O)NC(C)c2c(-n3cccc3)sc(C)c2C)cc1` (stereo unspecified), the activation was inactive: -20%.
The figure for `CCOc1ccccc1CNC(=O)CN1C(=O)CCCc2ccccc21` is inactive: -77.5%; for `CCOC(=O)CSc1nc2sc3c(c2c(=O)n1Cc1ccccc1)CC(C)CC3` (stereo unspecified) it is inactive: -20.3%; for `Cc1ccc(-n2ncc3c(NCCc4ccccc4)ncnc32)cc1C` it is inactive: 7.6%.
For the compound `Cc1cccc(OCCCCn2nnc3sc4c(c3c2=O)CCC(C)C4)c1` (stereo unspecified), the activation is inactive: -17.6%.
For `Cc1nc2nc(SCC(=O)NCc3ccccc3)nn2c(C)c1Cc1ccccc1Cl` the value was inactive: 6.19%; for `O=C(COc1ccccc1)Nc1ccc(C(=O)OCc2cc(=O)n3nc(C4CC4)sc3n2)cc1`, inactive: 3.2%.
With `CCN(CC)CCNC(=O)C1CCN(S(=O)(=O)c2c(C)noc2/C=C/c2ccccc2F)CC1`, the activation is inactive: -7.38%.
Consider `Cc1ccc(OCCSc2nc3ccc(NC(=O)COc4ccc(F)cc4)cc3s2)cc1`, for which the activation was inactive: 10.6%.
For the compound `COc1ccc(-n2c(/C=C/c3cc(OC)c(OC)cc3OC)nc3cc4ccccc4cc3c2=O)cc1Cl`, the activation is inactive: -13.5%.
For the compound `CCN(CC)CCOC(=O)c1cc(Cl)c(N)cc1OC`, the activation is inactive: -10.7%.
For `CCc1cccc(C)c1NC(=O)CN1CCCN(Cc2ccc(C)cc2)S1(=O)=O` the value was inactive: -5.57%.
`COc1ccc(-c2c(C)nn3c(C(F)(F)F)cc(-c4ccc(Br)cc4)nc23)cc1`: the activation was inactive: -13.3%.
As for `O=C(Cc1cccs1)NC1CC(=O)N(c2ccccc2)C1` (stereo unspecified), the activation was inactive: -0.991%.
Regarding `O=C(CN1CCCN(Cc2ccccc2Cl)S1(=O)=O)Nc1ccc2c(c1)OCCO2`, the activation was inactive: 21.5%.
For `Cc1cc(C)n2c(Nc3c(C)cccc3C)c(-c3ccsc3)nc2n1` the value was inactive: 15.9%.
`CCOC(=O)c1cc(-c2ccc(F)cc2)n(CC(=O)NC2CCCCC2)c1C`: the activation was inactive: -1.53%.
Turning to `COc1cc(/C=C/c2nc(C#N)c(NC(C)c3ccccc3)o2)cc(OC)c1OC` (stereo unspecified), the activation was inactive: -25.5%.
Regarding `Cc1ccc(S(=O)(=O)N[C@@H](Cc2ccccc2)C(=O)CCl)cc1`, the activation is inactive: -3.49%.
Turning to `O=C(O)CCc1ccc(-c2ccccc2)n1-c1cccc(Br)c1`, the activation is inactive: -9.34%.
For the compound `CCOc1ccc(CNC(=O)Cn2c(=O)c3cccn3c3ccc(F)cc32)cc1OC`, the activation was inactive: -15.6%.
Turning to `O=C(CCCCn1c(=O)c2ccccc2n(CC(=O)Nc2cccc(F)c2)c1=O)NCc1ccccc1Cl`, the activation was inactive: -5.05%.
With `CN(Cc1ccccc1)C(=O)c1cc2c(s1)-c1ccc(Cl)cc1SC2`, the activation is inactive: -23.4%.
The figure for `COc1cc(NCc2ccc3nc(N)nc(N)c3c2C)cc(OC)c1OC` is inactive: 8.84%; for `Cc1ccc(NC(=O)CCSc2nc(-c3ccc4c(c3)OCO4)cc(C(F)(F)F)n2)cc1` it is inactive: -9.08%; for `CCCCN(C)CCNC(=O)Cn1ncc2c([nH]c3ccccc32)c1=O` it is inactive: -7.97%.
For the compound `Cc1ccc(CNC(=O)Cn2c(=O)n(-c3ccccc3)c(=O)c3c2c2cc(C)ccc2n3C)cc1`, the activation is inactive: -1.97%.
Consider `CCc1ccc(Oc2nc3c(C)cccn3c(=O)c2/C=C(\C#N)c2nc3ccccc3s2)cc1`, for which the activation was inactive: -6.08%.
On to `O=C(c1ccc(Cl)cc1)n1nc(-c2ccco2)nc1NCc1cccs1`, for which the activation is inactive: 0.776%.
Take `CCOC(=O)CCN(c1ccccc1)S(=O)(=O)c1ccc2[nH]c(=O)ccc2c1`: the activation is inactive: -2.11%.
On to `CCOCCCNC(=O)CN1C(=O)c2c(c3ccccc3n2C)C1c1ccc(OC)cc1` (stereo unspecified), for which the activation was inactive: -11.1%.
The figure for `COc1cccc(N(Cc2nnc3n2CCCCC3)C(=O)Nc2cccc(Cl)c2)c1` is inactive: 15.5%; for `CCOC(=O)N1CCN(/[N+]([O-])=N/Oc2ccc([N+](=O)[O-])cc2[N+](=O)[O-])CC1` it is inactive: -4.23%.
The figure for `CCCN1CCCC[C@H]1C(=O)Nc1c(C)cccc1C` is inactive: -6.84%.
In the case of `COc1cc(C(=O)NCc2ccc(OCCN(C)C)cc2)cc(OC)c1OC`, the activation is inactive: -13.1%.
The figure for `CCOc1ccccc1NC(=O)N1CCCn2nc(C)cc21` is inactive: -5.67%.
Take `O=C(NCC(c1cccs1)S(=O)(=O)c1cccs1)c1ccc(C(F)(F)F)cc1` (stereo unspecified): the activation is inactive: 42.8%.
With `O=C(Cc1csc2nc(-c3ccccc3)cn12)NCc1ccc(F)cc1`, the activation was inactive: -2.43%.

The record behind these values is PubChem BioAssay AID1346428 (National Center for Advancing Translational Sciences (NCATS), 2018).
